Measurements published in article PMC6919601, “Identification of Plasmodium dipeptidyl aminopeptidase allosteric inhibitors by high throughput screening” (PLoS ONE, 2019).
“And” between values parts separate entries of the source, which are not always exact repeats. Equal entries are not always repeated. In all, about 110,000 compounds went through this assay and about 230 (0.21%) showed an effect of 50% or more. This is one part of the list.

Target: DPAP1 (Plasmodium falciparum, UniProt Q8IIJ9)
Sequence (Q8IIJ9 whole entry, looked up): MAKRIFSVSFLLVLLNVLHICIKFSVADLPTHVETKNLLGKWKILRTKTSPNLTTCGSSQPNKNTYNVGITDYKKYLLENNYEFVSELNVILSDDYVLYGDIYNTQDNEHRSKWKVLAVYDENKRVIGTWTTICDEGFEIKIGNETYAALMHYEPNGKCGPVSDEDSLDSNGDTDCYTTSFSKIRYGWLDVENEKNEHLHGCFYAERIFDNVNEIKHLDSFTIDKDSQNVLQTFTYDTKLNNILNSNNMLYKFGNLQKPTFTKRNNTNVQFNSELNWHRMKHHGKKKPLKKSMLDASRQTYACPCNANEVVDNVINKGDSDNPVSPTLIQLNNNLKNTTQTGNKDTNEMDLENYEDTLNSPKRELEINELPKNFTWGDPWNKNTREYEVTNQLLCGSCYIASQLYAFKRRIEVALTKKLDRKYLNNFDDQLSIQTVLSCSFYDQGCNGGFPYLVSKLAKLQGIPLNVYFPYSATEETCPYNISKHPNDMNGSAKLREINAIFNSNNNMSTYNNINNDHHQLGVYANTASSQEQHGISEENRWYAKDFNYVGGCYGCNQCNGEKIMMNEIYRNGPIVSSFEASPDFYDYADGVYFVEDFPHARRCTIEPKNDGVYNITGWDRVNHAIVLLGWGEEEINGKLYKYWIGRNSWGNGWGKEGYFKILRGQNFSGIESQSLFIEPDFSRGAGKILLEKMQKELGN
Test: primary screen, percent inhibition; read by cleavage of a fluorogenic dipeptide substrate; higher = more effect of the substance
Set-up: species or system P. falciparum D10 trophozoite lysates; single well
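Further: 30 min substrate incubation versus DMSO and 10 µM JCP410 controls.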

SMILES | % Inhibition @ 10 uM
COc1cc(C(C2=C(O)CC(C)(C)CC2=O)C2C(=O)CC(C)(C)CC2=O)cc(OC)c1OC (stereo not drawn) | -3.1%
Cc1cc(C(F)(F)F)nn1CC(=O)Nc1ccc(S(N)(=O)=O)cc1 | -4.66%
O=C(O)CCc1nnc2n(CCc3ccccc3)c(=O)c3ccccc3n12 | -2.42%
CC(C)N(Cc1ccccc1)C(=O)Cc1ccccc1 | 2.65%
COC(=O)C1=CN(C(C)C)C=C(C(=O)OC)C1c1cc(OC)c(OC)c(OC)c1 | -3.23%
O=C1OC(OC(=O)c2ccccc2Br)C(N2CCOCC2)=C1Cl (stereo not drawn) | 1.96%
O=C(O)C1C2C=CC(C2)C1C(=O)NCc1ccccn1 (stereo not drawn) | 4.28%
O=C(Nc1cccc(F)c1)c1cc(F)c(F)cc1Cl | 0.968%
COc1ccc(OC)c(C2C(C#N)=C(C)N=C3CC(c4ccc(Cl)cc4)CC(O)=C32)c1 (stereo not drawn) | -1.2%
COc1ccc(Cl)cc1NC(=O)c1ccc(F)cc1 | -13.3%
Cc1cc(C)nc(SCC(=O)Nc2nc3c(s2)CC(C)CC3)n1 (stereo not drawn) | -3.49%
COc1cccc(CN2C[C@@H]3C[C@H](C2)c2cccc(=O)n2C3)c1OC | -7.15%
Fc1cccc(CN2CCCCC2c2cccnc2)c1 (stereo not drawn) | -0.582%
CCOc1ccccc1C1NC(=O)NC(c2ccccc2)=C1C(=O)c1ccccc1 (stereo not drawn) | -5.07%
O=C(CSc1cn(Cc2ccc(F)cc2)c2ccccc12)Nc1nccs1 | 3.37%
CC(=O)c1cccc(NC(=O)c2sc(Cl)nc2C)c1 | -0.116%
CCCOc1cccc(C(=O)Nc2ccc(Br)cc2F)c1 | 3.06%
CCSC1=C(C#N)C(c2ccc(OC)c(OC)c2)C2=C(O)CC(C)(C)CC2=N1 (stereo not drawn) | 2.01%
Nc1c(C(=O)NCc2ccccc2)sc2nc(-c3ccc(F)cc3)ccc12 | 1.86%
CCc1cc2c(cc1C(C)NC(C)=O)OCCO2 (stereo not drawn) | 1.83%
N#Cc1c(N/C=C/C(=O)c2ccccc2)sc2c1CCCC2 | -1.21%
COc1cc(C(=O)Nc2cc(C(F)(F)F)ccc2N2CCOCC2)ccc1O | -7.08%
CCCN1CCC(NCc2ccc(Cl)c(Cl)c2)CC1 | 3.44%
C=CCN1C(=O)S/C(=C\c2cn(CC(=O)N3CCOCC3)c3ccccc23)C1=O | 8.3%
COc1ccc(OC)c(CNCc2c(C(=O)O)c(C)n(Cc3ccccc3F)c2C)c1 | 1.41%

SMILES | % Inhibition @ 10 uM
COc1ccc(/C=C(\NC(=O)c2ccccc2Cl)C(=O)N2CCOCC2)cc1 | 12.8%
COc1ccc(CCN(C)CC(=O)Nc2c3c(nc4ccccc24)N(Cc2ccccc2)CC3)cc1OC | -0.13%
COC(=O)c1sc2nc3c(cc2c1N)CCCC3 | 4.38%
COc1ccc(S(=O)(=O)N2CCN(Cc3ccccc3OC)CC2)cc1 | 3.86%
CCOc1cc(/C=C(/C#N)c2nc3ccccc3[nH]2)ccc1OCC(=O)O | 1.35%
CN1C(=O)C(CC(=O)c2ccc(Br)cc2)c2ccccc21 (stereo not drawn) | 0.408%
CC1CN=C(/C=C(O)/C=C/c2ccccc2)C(=O)N1 (stereo not drawn) | -1.4%
Cc1coc2c(C)c3oc(=O)c(CC(=O)N4CCCC4)c(C)c3cc12 | 2.54%
COc1ccc(CNC(=O)c2cccs2)cc1 | 2.46%
COc1ccc(-c2cc(C(=O)NCc3cn(C)nc3C)c3cc(Br)ccc3n2)cc1 | 1.86%
O=C1CC(c2cccc3ccccc23)C2=C(CCCC2=O)N1 (stereo not drawn) | -2.24%
C=CCn1c(SCC(N)=O)nc2sc(CC)cc2c1=O | 2.36%
COc1ccc(-c2cc(C(F)(F)F)nc(SCC(=O)NC3CCCC3)n2)cc1 | 4.08%
CC12CN(C(=O)c3ccccc3)CC(C)(CN(C(=O)c3ccccc3)C1)C2O (stereo not drawn) | -11.1%
NS(=O)(=O)c1ccc(-c2ccc(/C=c3\sc4nc5ccccc5n4c3=O)o2)cc1 | 1.37%
CCOc1ccc(C(=O)C2=C(O)C(=O)N(CCCN(C)C)C2c2ccccc2F)cc1C (stereo not drawn) | -3.75%
Cc1ccc(SCC(=O)NCc2ccccc2Cl)cc1 | 0.722%
CC(=O)Nc1ccc(NC(=O)/C=C/c2ccc(C(C)C)cc2)cc1 | -1.99%
CCOC(=O)C1=C(C)N=c2s/c(=C/c3ccccc3F)c(=O)n2C1c1ccccc1Cl (stereo not drawn) | -1.54%
O=C(O)c1ccc(S(=O)(=O)N2CCOCC2)o1 | -3.53%
O=C(NCCOc1ccccc1Cl)c1ccc2c3c(cccc13)CC2 | -3.04%
CCN1C(=O)N/C(=C/c2ccc(N(CC)CC)cc2)C1=O | 0.59%
C/N=C1\S/C(=C\c2ccc(OCc3cccc(C(=O)O)c3)cc2)C(=O)N1C | -4.39%
COc1cc2nc3c(O)n(CCCN4CCN(C)CC4)cnc-3c2cc1OC | -3.52%
Cc1cccc2c1cnn2C(=O)CCC(=O)N1CCc2ccccc2C1 | 1.68%

SMILES | % Inhibition @ 10 uM
Cc1onc(-c2ccccc2)c1C(=O)N1CCN(c2ccccc2)CC1 | -2.99%
COc1ccccc1N(C(C)=O)C1SC(=O)N(c2ccccc2)C1=O (stereo not drawn) | 16.8%
Cc1cccc(NC(=O)c2sc3nc4c(cc3c2N)CCCC4)c1 | -8.18%
CC(C)(C)c1ccc(C(=O)N2CCOCC2)cc1 | -1.25%
C(=C\c1ccccc1)/CN1CCN(Cc2cccc3ccccc23)CC1 | 2.47%
Cc1cccc(C2C3=C(O)c4ccccc4C3=Nc3c2c(=O)n(C)c(=O)n3C)c1 (stereo not drawn) | 8.6%
COc1ccc2nc3sc(C(=O)NCCN(C)Cc4ccccc4)cc3cc2c1 | -2.12%
CC(C)C[C@H](NC(=O)[C@H](Cc1c[nH]c2ccccc12)NC(=O)OC(C)(C)C)C(=O)NCC#N | -3.48%
CO/C(O)=C1\C(C)=NC2=C(C(=O)CC(C)(C)C2)C1c1cc(Br)cc(Br)c1O (stereo not drawn) | 21.5%
O=C(CN1C(=O)c2ccccc2S1(=O)=O)NCCSCc1ccc(Cl)cc1Cl | -6.51% and -6.67%
Cc1cccc(C(=O)N2CCN(c3ccc(N4CCOCC4)nn3)CC2)c1 | 0.66%
OC1(c2ccc(Br)cc2)CCN(Cc2ccc(Cl)c(Cl)c2)CC1 | 1.88%
CC1CCN(S(=O)(=O)c2ccc(Cl)c(C(=O)O)c2)CC1 | -3.44%
Cc1cc(Cl)ccc1OCCNC(=O)c1cccnc1 | -0.834%
Cc1ccc2oc(=O)c3cnn(CC(=O)N(C)CCC#N)c3c2c1 | 1.62%
Cc1cc(C)c(C#N)c(SCc2ccc(Cl)cc2)n1 | 4.41%
Cc1ccc2nc3c(O)n(CC(=O)NCCC4=CCCCC4)ncc-3c2c1 | -3.45%
CCCCC1(C)OC(=O)C(=Cc2c[nH]c3ccccc23)C(=O)O1 (stereo not drawn) | 3.16%
Cc1cc(C(=O)NCc2ccc3c(c2)OCO3)n(-c2ccccc2)n1 | -0.971%
N#C/C(=C\c1ccccc1Cl)c1nc2ccccc2[nH]1 | 4.54%
Cc1c(Br)c(C(=O)Nc2cccc(CN3CCOCC3)c2)nn1C | 0.389%
CC(C)CNC(=O)c1cccnc1Nc1ccccc1 | 0.634%
CCC(C)N1CCN(C(=O)Cc2ccccc2)CC1 (stereo not drawn) | 9.48%
Cc1ccc(C(=O)CC(C(=O)O)c2c[nH]c3ccccc23)cc1 (stereo not drawn) | -5.2%
COc1ccc(-c2csc(N3CCN(C(=O)c4ccco4)CC3)n2)cc1 | 1.03%

SMILES | % Inhibition @ 10 uM
O=C(Nc1cnn(Cc2ccc(F)cc2)c1)c1c(Cl)cccc1Cl | -1.88%
COc1cc(Br)c(C2CC(=O)NC(C)=C2C(=O)OCC2CCCCC2)cc1OC (stereo not drawn) | -1%
CCCOC(=O)c1ccc(Oc2c(C(F)(F)F)oc3cc(O)ccc3c2=O)cc1 | -2.91%
Cc1ccc(N(CC(=O)N[C@@H]2C[C@H]3CC[C@@H]2C3)S(=O)(=O)c2ccc(F)cc2)cc1 | 0.992%
COCCNC(=O)CS(=O)Cc1nc(-c2ccc(OC)cc2)oc1C (stereo not drawn) | -1.05%
Cc1onc(-c2ccccc2)c1C(=O)NC(CC(=O)O)c1cccc(Cl)c1 (stereo not drawn) | -4.49%
COC(=O)c1cc(OC)c(OC)cc1NC(=O)C1CC1 | -5.46%
COc1ccc(C(=O)n2nc3c4c(cccc42)C(=O)c2ccccc2-3)cc1 | -2.75%
CCOc1ccccc1CNC(=O)CCC(=O)N1Cc2ccccc2Oc2ncccc21 | -1.34%
O=C(CCn1c(=O)c2cccn2c2cccnc21)N1CCC2(CC1)OCCO2 | 3.88%
CC(C)CNC(=O)c1ccc(COc2cc(Cl)ccc2Cl)o1 | 0.413%
CCOC(=O)c1c(C)n(CC(O)CN2CCOCC2)c2cc(Br)c(OC)cc12 (stereo not drawn) | 2.99%
O=C(c1ccco1)N1CCN(c2ccc([N+](=O)[O-])cc2)CC1 | -1.93%
C=CCNC(=S)NC1(C)CCS(=O)(=O)C1 (stereo not drawn) | -4.51%
COc1ccc(-n2c(C)cc(/C=C3\C(=N)N4N=C(N5CCCC5)SC4=NC3=O)c2C)cc1Cl | 0.0579%
CCOc1cc(Br)c(C=C2C(=O)NC(=O)NC2=O)cc1OC | -2.39%
Cc1ccc(C2OCC3(CO2)SC(=O)NC3=O)cc1 (stereo not drawn) | 2.08%
O=C(O)c1cccnc1C(=O)c1ccccc1 | -5.81%
CCOc1ccc(S(=O)(=O)N2CCN(C)CC2)c2ccccc12 | -1.95%
COc1ccc(C(=O)Nc2ccccc2F)cc1 | 6.6%
CCCSc1nnc(NC(=O)c2cccc3ccccc23)s1 | -0.142%
Cc1cc(C(F)(F)F)c2c(N)c(C(=O)Nc3cccc(C(F)(F)F)c3)sc2n1 | -4.39%
FC(F)(F)c1ccc(N2CCOCC2)c(NCc2cccs2)c1 | 3.66%
COc1ccc(OCC(O)Cn2c(Br)nc3c2c(=O)[nH]c(=O)n3C)cc1 (stereo not drawn) | -1.37%
